Test results published in the supplement of paper PMC11417369.
± gives the standard deviation of the averaged measurements. The list shows a part of the results.

What follows are sequences tested on PfAP2-G AP2 domain (GST-tagged) (assay: gcPBM binding intensity (ln(normalized median fluorescence intensity)); higher = stronger DNA binding).
In short: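 Plasmodium falciparum DNA-binding domains carrying a GST tag were expressed in E. coli and applied for 1 h, at about 25 μg on average, to an Agilent 4 × 180k array. The array held primer-extended double-stranded 36-bp intergenic genomic probes together with negative controls, and binding took place in 1× PBS with 1% milk, 0.2 mg/ml BSA, 0.5% salmon testes DNA and 0.03% Triton X-100. An Alexa488 anti-GST antibody detected bound protein, and the array was scanned at 488 nm. Binding intensity is taken as the highest Masliner-normalised natural-log median intensity across replicate spots of either probe orientation.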

Sequence	gcPBM binding intensity (ln)
AAATGTTAAAATGACAGTACATATATAAAAAAAAAA [XGTACX_site3936]	10.7 ± 0.35
AAAAAAAACGCACATACACACACACCCATATATATA [CACACA_site9118]	10.3 ± 0.18
AAAAAAAAAAAAAAGGTGCAAATAAATTAACCTTAT	10.2 ± 0.22
AAATATTTGGAGAAATGTACATATTATAAATATATT [XGTACX_site6885]	11 ± 0.57
CTAGGAAATTATATGGGTACTCATATTCATAAAAAA [XGTACX_site1846]	11.3 ± 0.8
GATGATGTTTATTTGTGTACATATTAATACTTAATA [XGTACX_site1902]	11.4 ± 0.82
TACTTATGTGCATACCTACACACTTACATATATATA [CACACA_site2975]	10.2 ± 0.19
TATAAATAAATACATACACACACATACATATATATA [CACACA_site9024]	10.02 ± 0.085
AATCATATGAAAAATACATGCGCATGGATACCTTTA [TGCATGCA_site224]	10.1 ± 0.13
AAGAACAGAACGTACACACACATATATATATATATA [CACACA_site3457]	11.5 ± 0.99
AAAAAAAGAATGTGAACACACACATTGAATATAATT [CACACA_site8341]	9.98 ± 0.14
AATTATTTACCCTATACACACAAAACCCACTAAAAA [CACACA_site4801]	10.6 ± 0.46
TTTGTAAGTCTTTGTTGTACTCAATAGAATGAAGAA [XGTACX_site8930]	11.5 ± 1.1
ATAGGACATGTATCCAGTACATATTTAAAAAAAATA [XGTACX_site88]	10.9 ± 0.57
GCATATATCAAATATCGTACATTTTTTAAATTAAAA [XGTACX_site3994]	10.7 ± 0.54
ATAAAATCAAAATATACACACAAGGGGGAAAATCAA [CACACA_site2809]	10.6 ± 0.54
TTTTCTTTTTTTTATTGTACTTATAAAAATAAATAA [XGTACX_site3498]	11.4 ± 1
TTTCATTTTTGAAGGTGTACTTAAAATTTATGTAAT [XGTACX_site6671]	11.5 ± 1.1
AAAATTTATTATCTATATAATAATATGAAACAAAAC [GTGCAC_negctrl_site731]	9.925 ± 0.049

Sequence	gcPBM binding intensity (ln)
CATTATAAGAGACACACACACATATATAAATATGTA [CACACA_site6621]	10.01 ± 0.014
AGTAAGAGGCATTAAGCATGCATATTATTATAAGCA [TGCATGCA_site237]	9.46 ± 0.29
TATTTAAAACTATACACATGCATTATATAAAGATAT [TGCATGCA_site702]	10 ± 0.13
CTCATTTTGTTAATGGTGCAAAAAAAAAAAAAAAAA	10.1 ± 0.66
ATGAAAAAAAGACATGCATGTAAATATAAATTGCTT [TGCATGCA_site504]	9.82 ± 0.24
AATCAACATTTTTTTTGCTATTTTTTTTTTTAATTA [CACACA_negctrl_site891]	9.49 ± 0.34
TTATAAAATATATATACATGCACAAAATTATAAGTA [TGCATGCA_site294]	10.1 ± 0.3
AAAAAAACATAAAATACACACAACCTTAAGAATGTA [CACACA_site3293]	9.895 ± 0.064
ATATATTTCATTTTTGTACACACAACGTTGGAGGGT [CACACA_site8999]	11.3 ± 0.73
AAAAAAAAAATATATATATATATATAATATATATAT [TGCATGCA_negctrl_site329]	9.82 ± 0.72
ATATAGGTAATAATAATACACACGGTGAAATATAGA [CACACA_site4040]	10 ± 0.13
AAAAACTAACTGTATTGTACTCTCTTATAAATTCAC [XGTACX_site8967]	11.1 ± 0.7
TAAAAAAAAGGAAATACATGCATCTACATATATATA [TGCATGCA_site500]	9.77 ± 0.042
GACAATATTAAAACATGTACATGCATTTTATGAATA [XGTACX_site553]	11.2 ± 0.78
TATAATATAAAATATGCACACATTGGAATGGGAGAA [CACACA_site3746]	10.2 ± 0.26
TATTGTAAAGTGTCATTATTACGTTATATTATATAT [CACACA_negctrl_site98]	10.01 ± 0.021
AAAATGTTAAATATTAAATATGAAACAAAAAAAAAA [GTGCAC_negctrl_site211]	9.885 ± 0.092
GTATGATGTGAACATTGTACGAATGAATATATCTAA [XGTACX_site3789]	10.8 ± 0.55
ATATAAGTATACACATGTACATATTTCTTATGTATA [XGTACX_site2854]	11.2 ± 0.61

Sequence	gcPBM binding intensity (ln)
TATAAAGACACGTACACACACTAAGTATATCCAATA [CACACA_site6855]	11.6 ± 1.2
AAAAAATTTATAAAAGCACACAAAATAAAAAAAAAT [CACACA_site8420]	10.2 ± 0.29
ATAAGAAATTTCATACGTACATAAATAAATATATAT [XGTACX_site2932]	11.5 ± 0.92
TATAATTTAAAATACACACACATATATATAATATAT [CACACA_site2000]	9.95 ± 0.042
TAAATACATTTATATACACACCTATATATATATATA [CACACA_site5137]	10 ± 0.29
TCCAAATGAAAAAATTGTACATATTTTATCATATAT [XGTACX_site6159]	11 ± 0.56
GGTAGATTATTATTAACGAAAAATGTTTTTAACATA [GTGCAC_negctrl_site216]	9.66 ± 0.11
CATATTTTGAACTTCACACATATATATATATATATA [CACACA_site4228]	10.3 ± 0.54
TGTATATATAAAAATATACACACTGTATTATTGTAA [CACACA_site3757]	9.88
CCTTTCTATTGAAAATGTACATATATATTATTATAT [XGTACX_site5527]	11.1 ± 0.71
AATAATTGTAGACATGCACACACAAATATTATATAT [CACACA_site8181]	10.2 ± 0.19
AATAATTGTTATAGTTGTACAATACATATATTACAA [XGTACX_site30]	11.3 ± 0.63
TATGTTTACATATACGTGCACATGAATGTATACATT [GTGCAC_site9894]	10.4 ± 0.22
ACAAATTGTTAAAGGTGTACAATACATATATAAGAA [XGTACX_site4906]	11.4 ± 0.79
TTTAGCACAAACAAAAAAAAAATAGAAAAAAATATA [CACACA_negctrl_site1772]	9.705 ± 0.007
AATATATATACTTTTTTTTTTTTTTTTTTTTTTTTT [CACACA_negctrl_site520]	11 ± 0.47
AAAGAAAACCAAGTGGTGCATTTTCGTTACTTCATC	9.955 ± 0.049
CAATGTTACTATAATACACACAATATGTATTTGTCT [CACACA_site6668]	10.03 ± 0.057
TTGTTTAACTTGTTAAATATAATGTATCTGTGGATA [GTGCAC_negctrl_site108]	9.8 ± 0.13
